Measured values taken from patent publication US20230404921A1, “LYOTROPIC LIQUID CRYSTALLINE PHASE PARTICLE” (priority 2020, published 2023).
≈ marks a conversion by molar mass, not a printed value. Where two headings read alike, the source gives them in different places.

Tested on: E. coli O157:H7
Assay: CFU based cell viability / MIC determination assay
Parameters: species or system Escherichia coli
Conditions: for MIC: Escherichia coli

Question: Which results are given for `CC1(C)S[C@@H]2[C@H](NC(=O)Cc3ccccc3)C(=O)N2[C@H]1C(=O)O` [BP, Benzyl penicillin]?
Answer: CFUs (conc 40 ug/ml): 732.5; CFUs (conc 50 ug/ml): 587.5; CFUs (conc 80 ug/ml): 312.5; CFUs (conc 110 ug/ml): 340; CFUs (conc 120 ug/ml): 148.5; CFUs (conc 130 ug/ml): 3

Question: With `CC(=O)O[C@H]1C[C@@]2(C)[C@@H](C[C@@H](O)[C@H]3[C@@]4(C)CC[C@@H](O)[C@@H](C)[C@@H]4CC[C@@]32C)/C1=C(\CCC=C(C)C)C(=O)O` [Fusidic acid, Fusidic Acid] as the molecule, how does the MIC (read-out: minimum inhibitory concentration (MIC, 90% inhibition)) read?
Answer: 1500 µg/mL (≈ 2900 µM)

Question: For `CO[C@@H]1[C@@H](OC(N)=O)[C@@H](O)[C@H](Oc2ccc3c(O)c(NC(=O)c4ccc(O)c(CC=C(C)C)c4)c(=O)oc3c2C)OC1(C)C` [novobiocin, Novobiocin], which CFUs (conc 5 ug/ml) is on record?
Answer: 812

Question: What about the CFUs (conc 10 ug/ml) of the same molecule?
Answer: 800

Question: And the CFUs (conc 20 ug/ml)?
Answer: 476

Question: And the CFUs (conc 30 ug/ml)?
Answer: 280

Question: And the CFUs (conc 40 ug/ml)?
Answer: 137.5

Question: What about the CFUs (conc 50 ug/ml) of the same molecule?
Answer: 40

Question: With `CO[C@H]1/C=C/O[C@@]2(C)Oc3c(C)c(O)c4c(O)c(c(/C=N/N5CCN(C)CC5)c(O)c4c3C2=O)NC(=O)/C(C)=C\C=C\[C@H](C)[C@H](O)[C@@H](C)[C@@H](O)[C@@H](C)[C@H](OC(C)=O)[C@@H]1C` [rifampicin, Rifampicin] as the molecule, how does the MIC (read-out: Minimum inhibitory concentration (90% death)) read?
Answer: 3 to 5 µg/mL (≈ 3.65 to 6.08 µM)
